Test results from the supplement of paper PMC4604168 (melanoma cell lines).
This is one part of the list. Single values are uncertain, as repeats are few or missing.

Tested on: IST-MEL1
Test: cell count relative to DMSO control; melanoma cells; higher = more viable cells
Conditions: library dose: standard library concentration; 72 h
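Also: cells treated in 1,536-well plates, then fixed and DAPI-stained, with nuclei counted from automated high-throughput microscope images.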

For `NC1(c2ccc(-c3nc4ccn5c(=O)[nH]nc5c4cc3-c3ccccc3)cc2)CCC1` + COc1ccc2c(c1)CCC1C2CCC2(C)C(NCCCCCCN3C(=O)C=CC3=O)CCC12 [U73122] (first compound 2 µM, partner dose 2 µM), which cell count is on record?
The cell count was 93%.

For `CS(=O)(=O)c1ccc(C(=O)Nc2ccc(Cl)c(-c3ccccn3)c2)c(Cl)c1` [vismodegib] + COc1cc(N2CCC(N3CCN(C)CC3)CC2)ccc1Nc1ncc(Cl)c(Nc2ccccc2S(=O)(=O)C(C)C)n1 [NVP-TAE684] (first compound 5 µM, partner dose 0.4 µM), which cell count is on record?
Its cell count is 104%.

How did the cell count turn out when `C=C(c1ccc(C(=O)O)cc1)c1cc2c(cc1C)C(C)(C)CCC2(C)C` [Bexarotene] + O=c1cc(-c2cccc3c2Sc2ccccc2S3)oc(N2CCOCC2)c1 [KU55933] (first compound 10 µM, partner dose 5 µM) was run?
The cell count was 109%.

Which cell count does the source give for `CS(=O)(=O)c1ccc(C(=O)Nc2ccc(Cl)c(-c3ccccn3)c2)c(Cl)c1` [vismodegib] + OCc1c[nH]c2ccccc12 [Indole-3-carbinol] (first compound 5 µM, partner dose 4 µM) here?
Its cell count is 100%.

With `CN(c1ncccc1CNc1nc(Nc2ccc3c(c2)CC(=O)N3)ncc1C(F)(F)F)S(C)(=O)=O` + CC1(C)NC(=O)N(c2ccc([N+](=O)[O-])c(C(F)(F)F)c2)C1=O [nilutamide] (first compound 0.4 µM, partner dose 5 µM) as the molecule, how does the cell count read?
Its cell count is 71.1%.

How did the cell count turn out when `CS(=O)(=O)c1ccc(C(=O)Nc2ccc(Cl)c(-c3ccccn3)c2)c(Cl)c1` [vismodegib] + NCC(=O)Nc1ccc(-n2nc(C(F)(F)F)cc2-c2ccc3c(ccc4ccccc43)c2)cc1 [OSU03012] (first compound 5 µM, partner dose 5 µM) was run?
Its cell count is 82.3%.

Which cell count does the source give for `CS(=O)(=O)c1ccc(C(=O)Nc2ccc(Cl)c(-c3ccccn3)c2)c(Cl)c1` [vismodegib] + C[C@]1(c2nc3c(C(N)=O)cccc3[nH]2)CCCN1 [Veliparib] (first compound 5 µM, partner dose 7 µM) here?
Its cell count is 94.4%.

How did the cell count turn out when `NC1(c2ccc(-c3nc4ccn5c(=O)[nH]nc5c4cc3-c3ccccc3)cc2)CCC1` + C=CCn1c(=O)c2cnc(Nc3ccc(N4CCN(C)CC4)cc3)nc2n1-c1cccc(C(C)(C)O)n1 [MK1775] (first compound 2 µM, partner dose 0.1 µM) was run?
The cell count was 68.5%.
